Experiment [1] relates to MCF7 breast. The experiment is described as follows: NCI-60 one-dose screen, 48 h (100 = growth as untreated, 0 = no growth, -100 = all killed). Conditions: 25 µM.
In experiment [2] the test system is HCT-116 colon. The description is as above. Conditions: 0.25 µM.

Some structures have more than one record in an assay (separate samples or runs), and their calls can disagree.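 Activity criterion: percent growth below 10, measured after cells in 96-well plates were exposed to a single compound concentration for 48 hours.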 The source holds more than one record for some entries. They are shown here; other results are not. An entry can have further records. These are repeated runs of one drug, at its own concentration, as given; one value stands for one run. Counts like (3×) stand for listed records that agree.

Regarding `COc1cccc2c1C(=O)c1c(O)c3c(c(O)c1C2=O)C[C@@](O)(C(=O)CO)C[C@@H]3OC1CC(N)C(O)C(C)O1` (stereo partly specified), the growth entry was “inactive: 91.6% and active: 2.42, -19, 1.68, -11.8, -12, -12.3, -12.5, -10.6, -54.3, -55.3, -51.1, -48.9, -62.7, -4.5, -20.5, 2.79, -17.1, -10.7, 7.14, 1.21, -33.3, 1.48, 2.98, -15.8, -11.4, -8.45, -5.34, 4, 8.57, -21.8, -38.6, 2.73, 0.562, 1.72, -25.6, 1.42, -9.36, -38.9, -19.9, -23.9, -9.78, -15, -49.6, -50.9, -44.6, -7.06, -39.1 (2×), -7.42, -46.6, -48.1, -6.53, -17.6 (2×), -31.4, -2.48, -9.18, 8.04, -6.5, -20.9, -8.74, -21.5, -31.3, -44.8, -4.84, -30.6, -20.3, -2.56, 0.37, -16.4, -6.4, -4.55%” in experiment [1] (runs of 1998); “active: -61.1, 1.67, -8.95, 0.407, -32.1, -1.17, -12.6, 6.98, -3.56, -6.86, -38.1, -15.1 (2×), -12.7, -24.7, -22.1, -3.52, 0.364, -6.49, -15.4, 5.16, 6.89, 0.863, 5.62, 6.34, 4.61, 0.617, 0.684, 1.97, 3.6, 2.54, 6.76, 6.23, 5.74, -100, 0.512, 3.07, 0.9, -64.6, -18, 6.22, 0.124, 3.87, 6.36, -0.263, -28.5, -24.6, -97.1, -79.5, 0.762, -89%” in experiment [1] (runs of 1999); “active: -100% (2×), -33.8%, 1.04%” in experiment [1] (runs of 2000); “inactive: 19.5%, 19.9%” in experiment [2] (runs of 2006); “inactive: 16.5, 35.4, 23, 22.9, 29.5 (2×), 28.1 (2×), 31.4, 28.9 (2×), 31.2, 29.6, 33.9, 30, 29.8 (2×), 31, 34.7, 26, 26.2, 18.5, 15.4, 29.1, 45.9, 25.4, 31.5, 18.9, 26.7 (2×), 41.3, 26.4, 30.8, 25.1, 25.2, 34.9% and active: 6.4%” in experiment [2] (runs of 2007); “inactive: 29.7, 20.1, 27.9, 24.9, 25.1, 26.5, 23.4, 27.6, 24.7, 28.9, 25.9, 34.9 (2×), 33.5, 32.7, 21.4 (2×), 22.5, 23.7, 23.9, 25.2, 19.2, 17.9, 19.1, 18, 20.3, 15.9, 96.2, 23.5, 22, 14.5, 18.9, 16.3, 14.6, 10.5, 27.5, 19.4, 28.7, 44, 37.4, 25.6, 29.1, 27.8, 25, 20.2, 17% and active: 6.77, -2.31, 8.2, 2.33, 3.57, -21.3, -17.4, 2.15, -1.52%” in experiment [2] (runs of 2008). For the same compound, the growth result in experiment [2] (runs of 2009) is “inactive: 20.1 (2×), 16.9, 25.7, 25.6, 23.4 (3×), 31.2, 25.5, 23.8, 24 (3×), 27, 26.2, 17.6, 22, 17.8 (2×), 20.3, 19.8 (2×), 20.8, 21.1, 21.9, 18, 18.2, 23.2 (2×), 16.5, 20.7 (3×), 32.4, 20.4 (3×), 30.3, 15.8, 24.6, 21, 14.9, 13.3, 19.5, 12.6, 19.3, 23, 16.2, 17.4, 16.4, 16, 21.5, 22.4, 14.1, 19.2, 22.1, 24.5, 23.3, 25.8, 21.2, 25, 21.6, 26.7, 21.7, 27.1% and active: 7.81, 9.86, 9.74, 8.55%”; in experiment [2] (runs of 2010), “inactive: 30.9, 24.6, 27.4, 26.1 (3×), 24.8, 33.6, 32, 28.1 (3×), 31.2, 27.8 (2×), 23.9 (2×), 29.6 (2×), 37, 17.5, 23.5, 27 (2×), 12.3, 28.7, 18.5, 20.5, 27.5, 15.7, 30.6, 23.7, 26.5, 25.8, 25.5, 25.2, 27.1 (2×), 31.5, 31.4, 32.1, 30.8, 30.3, 28.4, 31.1, 26.4, 29.7, 31.7%”; in experiment [2] (runs of 2011), “inactive: 26.1 (2×), 31.5, 26.7, 40.6, 38.2, 30.4 (2×), 29.9, 26.3 (3×), 31.1, 35.5, 34.4, 37.9, 29.8 (3×), 38.1, 37.1, 39, 29.4, 33.1, 32.3, 35.4, 35.1, 34.8, 32, 33.3, 33, 23.1, 30, 25.4, 23.8, 24 (2×), 21.7, 20.8, 24.5, 24.6 (2×), 25.7, 25.9, 20.6, 20.7, 23.2, 22.5, 27.9 (2×), 27.6, 31.8, 26.4, 28.7 (2×), 28.4, 27.3%”; in experiment [2] (runs of 2012), “inactive: 32.2, 24.6 (2×), 27.3, 24.7, 28.7, 28.9, 29.6, 30, 29.9, 22.3, 23.2 (2×), 20.5, 24.3 (3×), 22.8, 22.9, 21.7 (2×), 24.8 (2×), 24.5 (2×), 22, 20.1, 20.6, 26, 32.3, 28.2 (2×), 26.5 (2×), 27.4, 27.6 (2×), 28.5, 25.9, 25.8, 16.6, 16.9, 31.4, 25.1, 37.9 (2×), 28.1, 34.9, 40.4, 34.4, 36.3, 33.5, 37.4, 42.3, 29.4, 26.1, 27.7, 22.6, 29.7, 26.2, 24, 29%”; in experiment [2] (runs of 2013) it was “inactive: 26.2 (2×), 25.8 (2×), 25.9, 28.4 (3×), 30.9, 28.9, 30.8, 34.1, 33.5 (2×), 30, 33.6, 31.2, 35.2 (2×), 30.5 (2×), 28.7, 31.3 (2×), 32.3, 31.1, 29.1 (2×), 26.4 (2×), 28.2, 29.4, 29.8, 20.3 (2×), 34.2, 32.2 (3×), 24.7, 21.5 (2×), 29.9, 30.4 (2×), 32.1, 27.8, 36, 38.2, 34.7, 32.4, 17, 22.2, 25.2, 24.8, 20.8, 23.4, 20.6, 15.7, 21.1, 20.7, 17.7, 16.3, 16.2, 17.4, 21.7, 13, 23%”.

These data come from PubChem BioAssay (NCI).
